# Assay results from the supplement of paper PMC4967469.
# By IC50 is meant the dose at which the fit gives 50% viability; fits outside the tested doses are given as limits. AUC sums up the same curve from the lowest dose to the 256-fold higher top dose: 1 means no effect, lower means more sensitive. An inferred top dose is not printed in the source and was worked back from the curve model. For some of these results: An entry number marks a drug with two screens in the source, which often give different values.
# What was measured:
# Test in all cases: Viability of human cancer cell lines after 72 h of drug (GDSC screen)
# AZD6482 = compound: Cc1cc([C@@H](C)Nc2ccccc2C(=O)O)c2nc(N3CCOCC3)cc(=O)n2c1 [AZD6482]
# Experimental: (§1)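 Human cancer cell lines in 384-well plates, medium with 10% serum, drug for 72 h over a 256-fold dose range (nine 2-fold or five 4-fold steps up to the top dose). Adherent lines were fixed and stained with the nucleic acid dye Syto60, suspension lines read with resazurin; signal relative to control wells, capped at 0 and 100%. One two-parameter sigmoid per drug and line, fitted in a mixed model over all curves with the slope shared within a line.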
# BMN-673 = compound: Cn1ncnc1[C@H]1c2n[nH]c(=O)c3cc(F)cc(c23)N[C@@H]1c1ccc(F)cc1 [BMN-673]; conditions: top dose 10 µM; top dose inferred
# Experimental: as §1
# MLN4924 = compound: NS(=O)(=O)OC[C@@H]1C[C@@H](n2ccc3c(N[C@H]4CCc5ccccc54)ncnc32)C[C@@H]1O [MLN4924]; conditions: top dose 1 µM; top dose inferred
# Experimental: as §1
# [1] = top dose 5 µM, screen: GDSC drug entry 1066, top dose inferred
# [2] = top dose 5.12 µM, screen: GDSC drug entry 156
Cell Line,AUC (AZD6482; [1]),IC50 (AZD6482; [1]) [µM],AUC (BMN-673),IC50 (BMN-673) [µM],AUC (MLN4924),IC50 (MLN4924) [µM],AUC (AZD6482; [2]),IC50 (AZD6482; [2]) [µM]
"SW1116 (large intestine, adherent)",0.954,> 5,0.977,> 10,0.984,> 1,–,–
"CRO-AP2 (B-cell lymphoma, suspension)",0.935,> 5,0.751,2.92,0.599,0.112,–,–
"HLE (liver, adherent)",0.978,> 5,0.967,> 10,0.724,0.258,0.919,> 5.12
"RF-48 (stomach, adherent)",0.913,> 5,0.983,> 10,0.888,> 1,0.788,2.55
"EW-18 (Ewing sarcoma, suspension)",0.908,> 5,0.934,> 10,0.915,> 1,0.928,> 5.12
"GOTO (neuroblastoma, adherent)",0.945,> 5,0.26,0.116,0.654,0.178,0.969,> 5.12
"NCI-H2085 (lung adenocarcinoma, adherent)",0.864,> 5,0.945,> 10,0.938,> 1,0.617,0.69
"KARPAS-1106P (B-cell lymphoma, suspension)",0.729,1.21,0.838,5.13,0.983,> 1,–,–
"CAL-120 (breast, adherent)",0.881,> 5,0.813,7.44,0.798,0.64,0.949,> 5.12
"DU-145 (prostate, adherent)",0.652,0.867,0.777,4.51,0.81,0.604,0.944,> 5.12
"D-283MED (medulloblastoma, adherent)",0.909,> 5,0.908,> 10,0.912,> 1,0.991,> 5.12
"KY821 (leukaemia, suspension)",0.815,2.31,0.981,> 10,0.88,0.811,0.992,> 5.12
"SUP-T1 (T-cell lymphoblastic leukaemia, suspension)",0.975,> 5,0.908,> 10,0.901,> 1,0.923,> 5.12
"MRK-nu-1 (breast, suspension)",0.985,> 5,0.989,> 10,0.989,> 1,0.976,> 5.12
"J82 (bladder, adherent)",0.967,> 5,0.92,> 10,0.944,> 1,0.628,0.72
"LU-99A (large cell lung carcinoma, adherent)",0.964,> 5,0.541,0.805,0.603,0.119,0.971,> 5.12

Cell Line,AUC (AZD6482; [1]),IC50 (AZD6482; [1]) [µM],AUC (BMN-673),IC50 (BMN-673) [µM],AUC (MLN4924),IC50 (MLN4924) [µM],AUC (AZD6482; [2]),IC50 (AZD6482; [2]) [µM]
"HO-1-N-1 (head and neck, adherent)",0.941,> 5,0.688,2,0.711,0.233,0.963,> 5.12
"BT-549 (breast, adherent)",0.77,2.68,0.945,> 10,0.793,0.671,–,–
"U-698-M (B-cell leukaemia, suspension)",0.975,> 5,0.986,> 10,0.986,> 1,0.983,> 5.12
"RT-112 (bladder, adherent)",0.923,> 5,0.952,> 10,0.914,> 1,0.949,> 5.12
"Hs633T (fibrosarcoma, adherent)",0.865,3.14,0.666,1.64,0.746,0.269,0.918,> 5.12
"CP66-MEL (melanoma, adherent)",0.973,> 5,0.963,> 10,0.923,> 1,0.961,> 5.12
"SK-N-FI (neuroblastoma, adherent)",0.962,> 5,0.977,> 10,0.973,> 1,0.989,> 5.12
"Mewo (melanoma, adherent)",0.803,3.06,0.902,> 10,0.906,> 1,0.958,> 5.12
"OVCAR-5 (ovary, adherent)",0.976,> 5,0.831,8.18,0.81,0.661,0.907,> 5.12
"KYSE-520 (oesophagus, adherent)",0.938,> 5,0.961,> 10,0.943,> 1,0.916,> 5.12
"ES7 (Ewing sarcoma, adherent)",0.752,1.7,0.11,< 0.0391,0.565,0.0948,0.597,0.593
"CML-T1 (chronic myeloid leukaemia, suspension)",0.982,> 5,0.173,0.0823,0.816,0.437,–,–
"NCI-H69 (small cell lung carcinoma, suspension)",0.958,> 5,0.909,> 10,0.872,> 1,0.951,> 5.12
"BE2-M17 (neuroblastoma, adherent)",0.966,> 5,0.981,> 10,0.986,> 1,0.979,> 5.12
"KE-37 (lymphoblastic leukaemia, suspension)",0.938,> 5,0.871,5.86,0.853,0.511,0.958,> 5.12
